# Data reported in PMC9911399, “Two distinct binding modes provide the RNA-binding protein RbFox with extraordinary sequence specificity”.
# Substitutions are numbered along the chain they refer to; changes in the protein carry UniProt numbers. The list shows a part of the results.
# B1: UCAGUGA (DNA:RNA)
# RNA: GGGAGACCGGAAUUCAGAUUGUCCUCAGUGAUUAAAUCCCGUCGUAGCCACCA
# DNA 1: CAATCTGAATTCCGGTCTCCC
# DNA 2: TGGTGGCTACGACGGGATT
# B2: UGGUAAG (DNA:RNA)
# RNA: B1 RNA with C26G, A27G, G28U, U29A, G30A, A31G
# DNA 1: CAATCTGAATTCCGGTCTCCC
# DNA 2: TGGTGGCTACGACGGGATT
# B3: CCCCGUC (DNA:RNA)
# RNA: B1 RNA with U25C, A27C, G28C, U29G, G30U, A31C
# DNA 1: CAATCTGAATTCCGGTCTCCC
# DNA 2: TGGTGGCTACGACGGGATT
# B4: AUAUACU (DNA:RNA)
# RNA: B1 RNA with U25A, C26U, G28U, U29A, G30C, A31U
# DNA 1: CAATCTGAATTCCGGTCTCCC
# DNA 2: TGGTGGCTACGACGGGATT
# B5: ACGGAAU (DNA:RNA)
# RNA: B1 RNA with U25A, A27G, U29A, G30A, A31U
# DNA 1: CAATCTGAATTCCGGTCTCCC
# DNA 2: TGGTGGCTACGACGGGATT
# B6: CUUACUU (DNA:RNA)
# RNA: GGGAGACCGGAAUUCAGAUUGUCCCUUACUUUUAAAUCCCGUCGUAGCCACCA
# DNA 1: CAATCTGAATTCCGGTCTCCC
# DNA 2: TGGTGGCTACGACGGGATT
# B7: GUUCCGA (DNA:RNA)
# RNA: B6 RNA with C25G, A28C, U30G, U31A
# DNA 1: CAATCTGAATTCCGGTCTCCC
# DNA 2: TGGTGGCTACGACGGGATT
# B8: UAUCCGC (DNA:RNA)
# RNA: B6 RNA with C25U, U26A, A28C, U30G, U31C
# DNA 1: CAATCTGAATTCCGGTCTCCC
# DNA 2: TGGTGGCTACGACGGGATT
# B9: UUGUACU (DNA:RNA)
# RNA: B6 RNA with C25U, U27G, A28U, C29A, U30C
# DNA 1: CAATCTGAATTCCGGTCTCCC
# DNA 2: TGGTGGCTACGACGGGATT
# B10: UAAUUCA (DNA:RNA)
# RNA: B1 RNA with C26A, G28U, G30C
# DNA 1: CAATCTGAATTCCGGTCTCCC
# DNA 2: TGGTGGCTACGACGGGATT
# B11: GAUAAAU (DNA:RNA)
# RNA: B6 RNA with C25G, U26A, C29A, U30A
# DNA 1: CAATCTGAATTCCGGTCTCCC
# DNA 2: TGGTGGCTACGACGGGATT
# B12: CGCAGUU (DNA:RNA)
# RNA: B6 RNA with U26G, U27C, C29G
# DNA 1: CAATCTGAATTCCGGTCTCCC
# DNA 2: TGGTGGCTACGACGGGATT
# B13: GGGCCUU (DNA:RNA)
# RNA: B6 RNA with C25G, U26G, U27G, A28C
# DNA 1: CAATCTGAATTCCGGTCTCCC
# DNA 2: TGGTGGCTACGACGGGATT
# B14: UUGACGA (DNA:RNA)
# RNA: B6 RNA with C25U, U27G, U30G, U31A
# DNA 1: CAATCTGAATTCCGGTCTCCC
# DNA 2: TGGTGGCTACGACGGGATT
# B15: AUAUUAU (DNA:RNA)
# RNA: B6 RNA with C25A, U27A, A28U, C29U, U30A
# DNA 1: CAATCTGAATTCCGGTCTCCC
# DNA 2: TGGTGGCTACGACGGGATT
# B16: CGAAUAU (DNA:RNA)
# RNA: B6 RNA with U26G, U27A, C29U, U30A
# DNA 1: CAATCTGAATTCCGGTCTCCC
# DNA 2: TGGTGGCTACGACGGGATT
# B17: AUAGGAC (DNA:RNA)
# RNA: B1 RNA with U25A, C26U, U29G, G30A, A31C
# DNA 1: CAATCTGAATTCCGGTCTCCC
# DNA 2: TGGTGGCTACGACGGGATT
# B18: UCAUUAA (DNA:RNA)
# RNA: B1 RNA with G28U, G30A
# DNA 1: CAATCTGAATTCCGGTCTCCC
# DNA 2: TGGTGGCTACGACGGGATT
# B19: UAACAAG (DNA:RNA)
# RNA: B1 RNA with C26A, G28C, U29A, G30A, A31G
# DNA 1: CAATCTGAATTCCGGTCTCCC
# DNA 2: TGGTGGCTACGACGGGATT
# B20: CGUAAGC (DNA:RNA)
# RNA: B6 RNA with U26G, C29A, U30G, U31C
# DNA 1: CAATCTGAATTCCGGTCTCCC
# DNA 2: TGGTGGCTACGACGGGATT
# Target: T1, RBFOX1 RRM RbFoxmut (Fox-RRM*) (Homo sapiens, UniProt Q9NWB1 109-208, R118D;E147R;N151S;E152T)
# T1 sequence: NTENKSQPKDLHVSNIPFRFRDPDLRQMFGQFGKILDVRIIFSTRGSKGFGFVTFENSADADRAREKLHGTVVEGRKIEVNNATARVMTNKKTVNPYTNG
# Test: EMSA; HiTS-Eq, 1 nM pool, 10 min; buffer printed only for the single-RNA assays: 10 mM Tris pH 7.5, 150 mM NaCl, 3.4 mM EDTA, 0.001% NP-40, 30 C
# Details: tags: His6 N-terminal (pET28a); label: 5' 32P
# Outline: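 Purified RbFox RRM (wild type or mutant) was equilibrated for 10 min in 50 µL with 1 nM of a 5′-radiolabelled pool of RNA with 7 randomized nucleotides, its flanks annealed to DNA oligonucleotides, across increasing protein concentrations. Free RNA was separated by 8% native PAGE, excised, reverse-transcribed, PCR-barcoded and sequenced on an Illumina HiSeq 2500. Relative association constants came from read-count changes of each variant against the control reaction, normalised to the cognate motif.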
row,Binder,binding signal
1,B1,0.0982 KA relative to UGCAUGU
2,B2,0.147 KA relative to UGCAUGU
3,B3,0.121 KA relative to UGCAUGU
4,B4,0.124 KA relative to UGCAUGU
5,B5,0.115 KA relative to UGCAUGU
6,B6,0.101 KA relative to UGCAUGU
7,B7,0.106 KA relative to UGCAUGU
8,B8,0.117 KA relative to UGCAUGU
9,B9,0.102 KA relative to UGCAUGU
10,B10,0.104 KA relative to UGCAUGU
11,B11,0.0497 KA relative to UGCAUGU
12,B12,0.0941 KA relative to UGCAUGU
13,B13,0.0652 KA relative to UGCAUGU
14,B14,0.0482 KA relative to UGCAUGU
15,B15,0.143 KA relative to UGCAUGU
16,B16,0.117 KA relative to UGCAUGU
17,B17,0.074 KA relative to UGCAUGU
18,B18,0.144 KA relative to UGCAUGU
19,B19,0.052 KA relative to UGCAUGU
20,B20,0.097 KA relative to UGCAUGU
